# Laboratory results: the supplement of paper PMC8728848
# Some of the results follow.
# B1: Epa1 (Candida glabrata) (protein)
# chain: MGSSHHHHHHSSGLVPRGSHMTSSNDISLASKDPTTFPLGCSPDITTPKKGLSMELYSYDFRKKGSYPCWDAAYLDPNYPRTGYKSHRLLAKVDGVTGNINFYYHATKGCTPQLGHLPASYNYPKPLTMTNFTMLLYGYFRPKVTGFHTFTISADDLLFVNFGAGNAFDCCRRDSSADHFGNYQAYAIWGSKTAKDELTVHLDAGVYYPIRLFYNNREYDGALSFTFKTESNENTVSDFSEYFFSLDDTEEGCPGLISYD
# Experiments:
# Experiment in all cases: glycan array binding signal (z-score within array); higher = stronger binding
# Details in all cases: glycan notation: IUPAC condensed, linker removed
# [1] = molecular target: Gal(b1-4)GlcNAc(b1-3)Gal(b1-4)GlcNAc(b1-3)[Gal(b1-4)GlcNAc(b1-3)Gal(b1-4)GlcNAc(b1-6)]GalNAc
# Outline: (§1)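 The binding signal is a Z-score computed within each array. Data were drawn from 3228 arrays in the Consortium for Functional Glycomics database, restricted to those with a known protein sequence. Scores were averaged over arrays of the same protein sequence at different concentrations or buffers, and over linkers, and negative values can be taken as non-binding.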
# [2] = molecular target: Gal(b1-4)GlcNAc(b1-3)Gal(b1-4)GlcNAc(b1-6)[Gal(b1-3)]GalNAc
# Outline: as §1
# [3] = molecular target: Gal(b1-4)GlcNAc(b1-3)Gal(b1-4)[Fuc(a1-3)]GlcNAc(b1-3)Gal(b1-4)[Fuc(a1-3)]GlcNAc
# Outline: as §1
# [4] = molecular target: Gal(b1-4)GlcNAc(b1-3)GalNAc
# Outline: as §1
# [5] = molecular target: Gal(b1-4)GlcNAc(b1-3)[Fuc(a1-3)GlcNAc(b1-6)]Gal(b1-4)Glc
# Outline: as §1
# [6] = molecular target: Gal(b1-4)GlcNAc(b1-3)[Gal(b1-4)GlcNAc(b1-6)]Gal(b1-4)GlcNAc
# Outline: as §1
# [7] = molecular target: Gal(b1-4)GlcNAc(b1-3)[GlcNAc(b1-6)]Gal(b1-4)GlcNAc
# Outline: as §1
# [8] = molecular target: Gal(b1-4)GlcNAc(b1-6)Gal(b1-4)GlcNAc
# Outline: as §1
# [9] = molecular target: Gal(b1-4)GlcNAc(b1-6)GalNAc
# Outline: as §1
# [10] = molecular target: Gal(b1-4)GlcNAc(b1-6)[Gal(b1-3)]GalNAc
# Outline: as §1
# [11] = molecular target: Gal(b1-4)GlcNAc(b1-6)[Gal(b1-4)GlcNAc(b1-3)]GalNAc
# Outline: as §1
# Gal(b1-4)GlcNAc6P = molecular target: Gal(b1-4)GlcNAc6P
# Outline: as §1
# Gal(b1-6)Gal = molecular target: Gal(b1-6)Gal
# Outline: as §1
# Gal3S(b1-3)GalNAc = molecular target: Gal3S(b1-3)GalNAc
# Outline: as §1
# Gal3S(b1-3)GlcNAc = molecular target: Gal3S(b1-3)GlcNAc
# Outline: as §1
# [12] = molecular target: Gal3S(b1-3)[Fuc(a1-4)]GlcNAc
# Outline: as §1
# Gal3S(b1-4)Glc = molecular target: Gal3S(b1-4)Glc
# Outline: as §1
# Gal3S(b1-4)Glc6S = molecular target: Gal3S(b1-4)Glc6S
# Outline: as §1
# Gal3S(b1-4)GlcNAc = molecular target: Gal3S(b1-4)GlcNAc
# Outline: as §1
# [13] = molecular target: Gal3S(b1-4)[Fuc(a1-3)]Glc6S
# Outline: as §1
# [14] = molecular target: Gal3S(b1-4)[Fuc(a1-3)]GlcNAc
# Outline: as §1
# [15] = molecular target: Gal3S(b1-4)[Fuc(a1-3)]GlcNAc6S
# Outline: as §1
# Gal3S4S(b1-4)GlcNAc = molecular target: Gal3S4S(b1-4)GlcNAc
# Outline: as §1
# Gal3S6S(b1-4)GlcNAc = molecular target: Gal3S6S(b1-4)GlcNAc
# Outline: as §1
# Gal3S6S(b1-4)GlcNAc6S = molecular target: Gal3S6S(b1-4)GlcNAc6S
# Outline: as §1
# Gal4S(b1-4)GlcNAc = molecular target: Gal4S(b1-4)GlcNAc
# Outline: as §1
# Gal4S6S(b1-4)GlcNAc = molecular target: Gal4S6S(b1-4)GlcNAc
# Outline: as §1
# Gal6P(b1-4)GlcNAc = molecular target: Gal6P(b1-4)GlcNAc
# Outline: as §1
# Gal6S(b1-3)GlcNAc = molecular target: Gal6S(b1-3)GlcNAc
# Outline: as §1
# Gal6S(b1-3)GlcNAc6S = molecular target: Gal6S(b1-3)GlcNAc6S
# Outline: as §1
# Gal6S(b1-4)Glc = molecular target: Gal6S(b1-4)Glc
# Outline: as §1
# Gal6S(b1-4)Glc6S = molecular target: Gal6S(b1-4)Glc6S
# Outline: as §1
# Gal6S(b1-4)GlcNAc = molecular target: Gal6S(b1-4)GlcNAc
# Outline: as §1
# Gal6S(b1-4)GlcNAc6S = molecular target: Gal6S(b1-4)GlcNAc6S
# Outline: as §1
# GalNAc(a1-3)Gal = molecular target: GalNAc(a1-3)Gal
# Outline: as §1
# GalNAc(a1-3)GalNAc = molecular target: GalNAc(a1-3)GalNAc
# Outline: as §1
# [16] = molecular target: GalNAc(a1-3)GalNAc(b1-3)Gal(a1-4)Gal(b1-4)Glc
# Outline: as §1
binder,measurement,setting,value
B1,glycan array binding signal (z-score),[1],0.952
same,glycan array binding signal (z-score),[2],0.939
same,glycan array binding signal (z-score),[3],-0.056
same,glycan array binding signal (z-score),[4],-0.015
same,glycan array binding signal (z-score),[5],-0.128
same,glycan array binding signal (z-score),[6],0.516
same,glycan array binding signal (z-score),[7],0.168
same,glycan array binding signal (z-score),[8],3.12
same,glycan array binding signal (z-score),[9],1.22
same,glycan array binding signal (z-score),[10],4.02
same,glycan array binding signal (z-score),[11],0.922
same,glycan array binding signal (z-score),Gal(b1-4)GlcNAc6P,-0.257
same,glycan array binding signal (z-score),Gal(b1-6)Gal,0.429
same,glycan array binding signal (z-score),Gal3S(b1-3)GalNAc,-0.317
same,glycan array binding signal (z-score),Gal3S(b1-3)GlcNAc,-0.351
same,glycan array binding signal (z-score),[12],-0.293
same,glycan array binding signal (z-score),Gal3S(b1-4)Glc,-0.295
same,glycan array binding signal (z-score),Gal3S(b1-4)Glc6S,-0.272
same,glycan array binding signal (z-score),Gal3S(b1-4)GlcNAc,-0.442
same,glycan array binding signal (z-score),[13],-0.042
same,glycan array binding signal (z-score),[14],-0.314
same,glycan array binding signal (z-score),[15],-0.394
same,glycan array binding signal (z-score),Gal3S4S(b1-4)GlcNAc,-0.316
same,glycan array binding signal (z-score),Gal3S6S(b1-4)GlcNAc,-0.276
same,glycan array binding signal (z-score),Gal3S6S(b1-4)GlcNAc6S,-0.197
same,glycan array binding signal (z-score),Gal4S(b1-4)GlcNAc,-0.351
same,glycan array binding signal (z-score),Gal4S6S(b1-4)GlcNAc,-0.342
same,glycan array binding signal (z-score),Gal6P(b1-4)GlcNAc,-0.272
same,glycan array binding signal (z-score),Gal6S(b1-3)GlcNAc,-0.081
same,glycan array binding signal (z-score),Gal6S(b1-3)GlcNAc6S,-0.014
same,glycan array binding signal (z-score),Gal6S(b1-4)Glc,0.321
same,glycan array binding signal (z-score),Gal6S(b1-4)Glc6S,0.427
same,glycan array binding signal (z-score),Gal6S(b1-4)GlcNAc,0.393
same,glycan array binding signal (z-score),Gal6S(b1-4)GlcNAc6S,0.803
same,glycan array binding signal (z-score),GalNAc(a1-3)Gal,-0.273
same,glycan array binding signal (z-score),GalNAc(a1-3)GalNAc,-0.265
same,glycan array binding signal (z-score),[16],-0.312
